# Results as given in the supplement of paper PMC8728848.
# Some of the results follow.
# B1: GSL-I-B4 (Griffonia simplicifolia) (protein)
# chain: NFWSDVEDSIIFQGDANTTAGTLQLCKTNQYGTPLQWSAGRALYSDPVQLWDNKTESVASFYTEFTFFLKITGNGPADGLAFFLAPPDSDVKDAGEYLGLFNKSTATQPSKNQVVAVEFDTWTNPNFPEPSYRHIGINVNSIVSVATKRWEDSDIFSGKIATARISYDGSAEILTVVLSYPDGSDYILSHSVDMRQNLPESVRVGISASTGNNQFLTVYILSWRFSSNLQSTSVKAAMEPEITRTVV
# Assays:
# Assay in all cases: glycan array binding signal (z-score within array); higher = stronger binding
# Conditions in all cases: glycan notation: IUPAC condensed, linker removed
# [1] = target: Gal(b1-4)GlcNAc(b1-3)Gal(b1-4)GlcNAc(b1-3)Gal(b1-4)GlcNAc(b1-2)Man(a1-3)[Gal(b1-4)GlcNAc(b1-3)Gal(b1-4)GlcNAc(b1-3)Gal(b1-4)GlcNAc(b1-2)Man(a1-6)]Man(b1-4)GlcNAc(b1-4)GlcNAc
# Method in brief: (§1)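 Arrays were curated from the Consortium for Functional Glycomics database, 3228 in total, and kept only where the protein sequence was available. Binding is expressed as a within-array Z-score. This score was averaged across arrays of the same protein sequence at different concentrations or buffers and across linkers, and negative values can be read as non-binding.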
# [2] = target: Gal(b1-4)GlcNAc(b1-3)Gal(b1-4)GlcNAc(b1-3)Gal(b1-4)GlcNAc(b1-2)Man(a1-3)[Gal(b1-4)GlcNAc(b1-3)Gal(b1-4)GlcNAc(b1-3)Gal(b1-4)GlcNAc(b1-2)Man(a1-6)]Man(b1-4)GlcNAc(b1-4)[Fuc(a1-6)]GlcNAc
# Method in brief: as §1
# [3] = target: Gal(b1-4)GlcNAc(b1-3)Gal(b1-4)GlcNAc(b1-3)Gal(b1-4)GlcNAc(b1-2)[Gal(b1-4)GlcNAc(b1-3)Gal(b1-4)GlcNAc(b1-3)Gal(b1-4)GlcNAc(b1-6)]Man(a1-6)[Gal(b1-4)GlcNAc(b1-3)Gal(b1-4)GlcNAc(b1-3)Gal(b1-4)GlcNAc(b1-2)Man(a1-3)]Man(b1-4)GlcNAc(b1-4)[Fuc(a1-6)]GlcNAc
# Method in brief: as §1
# [4] = target: Gal(b1-4)GlcNAc(b1-3)Gal(b1-4)GlcNAc(b1-3)Gal(b1-4)GlcNAc(b1-3)Gal(b1-4)GlcNAc(b1-2)Man(a1-3)[Gal(b1-4)GlcNAc(b1-3)Gal(b1-4)GlcNAc(b1-3)Gal(b1-4)GlcNAc(b1-3)Gal(b1-4)GlcNAc(b1-2)Man(a1-6)]Man(b1-4)GlcNAc(b1-4)GlcNAc
# Method in brief: as §1
# [5] = target: Gal(b1-4)GlcNAc(b1-3)Gal(b1-4)GlcNAc(b1-3)Gal(b1-4)GlcNAc(b1-3)Gal(b1-4)GlcNAc(b1-2)Man(a1-3)[Gal(b1-4)GlcNAc(b1-3)Gal(b1-4)GlcNAc(b1-3)Gal(b1-4)GlcNAc(b1-3)Gal(b1-4)GlcNAc(b1-2)Man(a1-6)]Man(b1-4)GlcNAc(b1-4)[Fuc(a1-6)]GlcNAc
# Method in brief: as §1
# [6] = target: Gal(b1-4)GlcNAc(b1-3)Gal(b1-4)GlcNAc(b1-3)Gal(b1-4)GlcNAc(b1-3)Gal(b1-4)GlcNAc(b1-2)[Gal(b1-4)GlcNAc(b1-3)Gal(b1-4)GlcNAc(b1-3)Gal(b1-4)GlcNAc(b1-3)Gal(b1-4)GlcNAc(b1-6)]Man(a1-6)[Gal(b1-4)GlcNAc(b1-3)Gal(b1-4)GlcNAc(b1-3)Gal(b1-4)GlcNAc(b1-3)Gal(b1-4)GlcNAc(b1-2)Man(a1-3)]Man(b1-4)GlcNAc(b1-4)[Fuc(a1-6)]GlcNAc
# Method in brief: as §1
# [7] = target: Gal(b1-4)GlcNAc(b1-3)Gal(b1-4)GlcNAc(b1-3)Gal(b1-4)GlcNAc(b1-3)Gal(b1-4)GlcNAc(b1-3)Gal(b1-4)GlcNAc(b1-2)Man(a1-3)[Gal(b1-4)GlcNAc(b1-3)Gal(b1-4)GlcNAc(b1-3)Gal(b1-4)GlcNAc(b1-3)Gal(b1-4)GlcNAc(b1-3)Gal(b1-4)GlcNAc(b1-2)Man(a1-6)]Man(b1-4)GlcNAc(b1-4)GlcNAc
# Method in brief: as §1
# [8] = target: Gal(b1-4)GlcNAc(b1-3)Gal(b1-4)GlcNAc(b1-3)Gal(b1-4)GlcNAc(b1-3)Gal(b1-4)GlcNAc(b1-3)Gal(b1-4)GlcNAc(b1-2)Man(a1-3)[Gal(b1-4)GlcNAc(b1-3)Gal(b1-4)GlcNAc(b1-3)Gal(b1-4)GlcNAc(b1-3)Gal(b1-4)GlcNAc(b1-3)Gal(b1-4)GlcNAc(b1-2)Man(a1-6)]Man(b1-4)GlcNAc(b1-4)[Fuc(a1-6)]GlcNAc
# Method in brief: as §1
# [9] = target: Gal(b1-4)GlcNAc(b1-3)Gal(b1-4)GlcNAc(b1-3)Gal(b1-4)GlcNAc(b1-3)Gal(b1-4)GlcNAc(b1-3)Gal(b1-4)GlcNAc(b1-2)[Gal(b1-4)GlcNAc(b1-3)Gal(b1-4)GlcNAc(b1-3)Gal(b1-4)GlcNAc(b1-3)Gal(b1-4)GlcNAc(b1-3)Gal(b1-4)GlcNAc(b1-6)]Man(a1-6)[Gal(b1-4)GlcNAc(b1-3)Gal(b1-4)GlcNAc(b1-3)Gal(b1-4)GlcNAc(b1-3)Gal(b1-4)GlcNAc(b1-3)Gal(b1-4)GlcNAc(b1-2)Man(a1-3)]Man(b1-4)GlcNAc(b1-4)[Fuc(a1-6)]GlcNAc
# Method in brief: as §1
# [10] = target: Gal(b1-4)GlcNAc(b1-3)Gal(b1-4)GlcNAc(b1-3)Gal(b1-4)GlcNAc(b1-3)Gal(b1-4)GlcNAc(b1-3)Gal(b1-4)GlcNAc(b1-3)Gal(b1-4)GlcNAc(b1-2)Man(a1-3)[Gal(b1-4)GlcNAc(b1-3)Gal(b1-4)GlcNAc(b1-3)Gal(b1-4)GlcNAc(b1-3)Gal(b1-4)GlcNAc(b1-3)Gal(b1-4)GlcNAc(b1-3)Gal(b1-4)GlcNAc(b1-2)Man(a1-6)]Man(b1-4)GlcNAc(b1-4)GlcNAc
# Method in brief: as §1
# [11] = target: Gal(b1-4)GlcNAc(b1-3)Gal(b1-4)GlcNAc(b1-3)GalNAc
# Method in brief: as §1
# [12] = target: Gal(b1-4)GlcNAc(b1-3)Gal(b1-4)GlcNAc(b1-3)[Gal(b1-4)GlcNAc(b1-3)Gal(b1-4)GlcNAc(b1-6)]GalNAc
# Method in brief: as §1
# [13] = target: Gal(b1-4)GlcNAc(b1-3)Gal(b1-4)GlcNAc(b1-6)[Gal(b1-3)]GalNAc
# Method in brief: as §1
# [14] = target: Gal(b1-4)GlcNAc(b1-3)Gal(b1-4)[Fuc(a1-3)]GlcNAc(b1-3)Gal(b1-4)[Fuc(a1-3)]GlcNAc
# Method in brief: as §1
# [15] = target: Gal(b1-4)GlcNAc(b1-3)GalNAc
# Method in brief: as §1
# [16] = target: Gal(b1-4)GlcNAc(b1-3)[Fuc(a1-3)GlcNAc(b1-6)]Gal(b1-4)Glc
# Method in brief: as §1
# [17] = target: Gal(b1-4)GlcNAc(b1-3)[Gal(b1-4)GlcNAc(b1-6)]Gal(b1-4)GlcNAc
# Method in brief: as §1
# [18] = target: Gal(b1-4)GlcNAc(b1-3)[GlcNAc(b1-6)]Gal(b1-4)GlcNAc
# Method in brief: as §1
# [19] = target: Gal(b1-4)GlcNAc(b1-6)Gal(b1-4)GlcNAc
# Method in brief: as §1
binder,measurement,setting,value
B1,glycan array binding signal (z-score),[1],0.143
same,glycan array binding signal (z-score),[2],-0.204
same,glycan array binding signal (z-score),[3],-0.105
same,glycan array binding signal (z-score),[4],-0.16
same,glycan array binding signal (z-score),[5],-0.182
same,glycan array binding signal (z-score),[6],-0.191
same,glycan array binding signal (z-score),[7],-0.139
same,glycan array binding signal (z-score),[8],-0.136
same,glycan array binding signal (z-score),[9],-0.188
same,glycan array binding signal (z-score),[10],-0.133
same,glycan array binding signal (z-score),[11],0.126
same,glycan array binding signal (z-score),[12],0.017
same,glycan array binding signal (z-score),[13],0.05
same,glycan array binding signal (z-score),[14],-0.193
same,glycan array binding signal (z-score),[15],-0.185
same,glycan array binding signal (z-score),[16],-0.193
same,glycan array binding signal (z-score),[17],-0.117
same,glycan array binding signal (z-score),[18],-0.2
same,glycan array binding signal (z-score),[19],-0.182
